Measurements from PubChem BioAssay AID924 (National Center for Advancing Translational Sciences (NCATS), 2007).
The whole screen tested about 130,000 compounds, of which about 1,200 (0.92%) were called active. The shares of active, inactive and inconclusive entries below differ from those in the screen. The call rests on the fitted dose curve; in most records, active means well fitted cell-killing curve with a large enough effect; inconclusive means small, poorly fitted or top-dose-only effect; inactive means no such curve, though single readings can be large or run the other way. Where the call is inconclusive, the potency comes from a doubtful curve fit.

assay: qHTS Screen for Compounds that Selectively Target Cancer Cells with p53 Mutations: Cytotoxicity of p53ts Cells at the Permissive Temperature; details: H1299-p53A138V at 32C, ATP luminescence viability, 24 h; activity change, negative = cytotoxicity: at 46.1 µM (top of the series); further: nearly all actives have a fitted effect of over 55% in size;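 on activity change, negative = cytotoxicity: 0% = DMSO and -100% = full killing by reference compound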
From the text: NIH Chemical Genomics Center [NCGC] NIH Molecular Libraries Screening Centers Network [MLSCN] MLSCN Grant: 1 X01 MH079844-01 Assay Submitter (PI): Dr. SUN, YI, University of Michigan NCGC Assay Overview: Synthetic Lethal Screen for Compounds to Kill Cancer Cells with p53 Mutation. Tumor suppressor gene p53 serves as a major cellular barrier against tumorigenesis. […] The goal of this screening is to identify small molecule probes that selectively kill cancer cells with mutations in p53. This screening was carried out using two lines of H1299 lung cancer cells. The H1299-p53 A138V line express a temperature sensitive p53 mutant (p53ts) in which the mutant p53 protein (A138V) is in the mutant confirmation when grown at 39C (the nonpermissive temperature) and in the wild type conformation when grown at 32C (the permissive temperature). A H1299-neo line (p53 null) grown at both 39C and 32C were used as counter-screens to filter out false positive associated with temperature shifting. The small molecular compounds that selectively target mutant p53-containing cancer cells were selected as candidate probes for further study. A cytotoxicity assay based on the measurement of ATP contents in cells was used in this screen. Concentration-responses of all the compounds in the library collection were determined in qHTS using the cell lines and temperature conditions as above.
NCGC Assay Protocol Summary: Both the H1299-p53A138V and H1299-neo cell lines were provided by Dr.Yi Sun, a PI at the University Michigan. The cells were maintained and cultured at 37C. The resuspended frozen cells were used to plate the cells in the 1536-well assay plates at a density of 600 cells per well in 5 ul medium. The assay plates with the cells were incubated at 37C for 16 to 30 hours before the experiments. The library compounds in DMSO solution were added to the cells in assay plates and incubated 24 hours at 39C (for mutant p53 conformation) or 32C (for normal p53 conformation as control). An ATP_lite assay kit (PerkinElmer) was used to determine the cell viability. Tomaxifen (100uM) was used as the positive control for cell killing. Data were normalized to the controls for basal activity (DMSO only) and 100% killing (100uM tamoxifen). AC50 values were determined from concentration-response data modeled with the standard Hill equation. P53 assay protocol: 1. Reagent; 5 uL H1299-p53A138V or H1299-neo cell cells/well 2. Time; overnight; 37C incubation 3. Compounds; 23 nL; 5.9 nM to 46 uM 4. Controls; 23 nL; Tamoxifen 100 uM 5. Time; 24 hr; 37C incubation 6. Reagent; 3 uL; ATP_Lite reagent 7. Time; 20 min; Room Temperature 8. Detection; Luminescence; Viewlux plate reader Keywords: p53, synthetic lethal, cancer, cell viability, cytotoxicity, H1299 cell line, luminescence, MLSMR, MLSCN, NIH Roadmap, qHTS, NCGC
Potency means the concentration at half of the fitted maximal effect; tags describe the fitted curve by direction and shape.

Row | SMILES | Potency | activity change, negative = cytotoxicity
1 | Cc1ccccc1OCCCCn1c(C2CC(=O)N(c3ccccc3Cl)C2)nc2ccccc21 (stereo not given) | inconclusive: 31.6 µM [cytotoxic, single point] | –
2 | Cn1c(/C=N/c2nc3ccccc3[nH]2)nc2ccccc21 | – | inactive: 1.67%
3 | COc1ccc2c(=O)c(-c3ccccc3)coc2c1 | inconclusive: 2.51 µM [cytotoxic, full curve] | –
4 | Cc1cc(NCCCn2ccnc2)n2nc(-c3ccc(F)cc3)cc2n1 | inconclusive: 15.8 µM [cytotoxic, partial curve] | –
5 | COc1ccc(NC(=O)Cn2c(=O)n(-c3ccccc3)c(=O)c3c4c(sc32)CCCC4)cc1 | inconclusive: 0.282 µM [cytotoxic, partial curve, poor fit] | –
6 | Cc1cc(C)cc(Nc2cc(-c3ccccc3)nc(C)n2)c1 | inconclusive: 31.6 µM [cytotoxic, single point] | –
7 | COC(=O)c1c(NC(=O)c2cc3nc(-c4ccc(OC)cc4)cc(C(F)(F)F)n3n2)sc2c1CCCC2 | – | inactive: 4.91%
8 | CCc1nnc(NC(=O)CCC(=O)N2CCN(Cc3ccccc3)CC2)s1 | inconclusive: 10 µM [cytotoxic, partial curve] | –
9 | CC(C)(C)C1=Nn2c(nnc2-c2n[nH]c3c2CCC3)SC1 | – | inactive: 3.2%
10 | O=c1c2sc(-c3ccccc3)cc2nc2n1CCC2 | inconclusive: 20 µM [cytotoxic, partial curve, poor fit] | –
11 | COc1ccc(CNC(=O)c2cc3cc(C)ccc3n2C)cc1 | inconclusive: 0.398 µM [cytotoxic, full curve] | –
12 | Cc1ccccc1-c1ncnn1-c1sc2c(c1C#N)CCCCC2 | inconclusive: 2 µM [cytotoxic, full curve] | –
13 | O=C1CC(c2nc3ccccc3n2CCCCOc2ccccc2)CN1c1ccccc1Cl (stereo not given) | inconclusive: 15.8 µM [cytotoxic, single point] | –
14 | Cc1ccc(Nc2nc(N)nc(CSc3nncn3C)n2)cc1 | inconclusive: 35.5 µM [cytotoxic, single point] | –
15 | COc1ccc(-c2nc3scc(CCNS(=O)(=O)c4ccc(F)cc4F)n3n2)cc1OC | – | inactive: -5.56%
16 | O=C(CC1Sc2ncnn2C1=O)Nc1ccc(Br)cc1 (stereo not given) | inconclusive: 25.1 µM [cytotoxic, single point] | –
17 | O=C(/C=C/c1ccc(Br)cc1)N1CCN(c2cccc(C(F)(F)F)c2)CC1 | inconclusive: 0.0398 µM [cytotoxic, full curve, poor fit] | –
18 | CCN(c1ccccc1)S(=O)(=O)c1nnc(NC(=O)COc2ccc(OC)cc2)s1 | – | inactive: 3.29%

Row | SMILES | Potency | activity change, negative = cytotoxicity
19 | COc1ccc(CSc2nc3ncccc3[nH]2)cc1 | active: 15.8 µM | –
20 | Cc1ccnc(NC(=O)COc2ccc3oc4c(c3c2)CCCC4)c1 | inconclusive: 12.6 µM [cytotoxic, single point] | –
21 | Cc1ccc(SCc2cn3c(C)csc3n2)cc1 | inconclusive: 10 µM [cytotoxic, partial curve] | –
22 | CCCCNC(=O)C(c1ccc(OCC(=O)OC)c(C(=O)OC)c1)N(CCc1ccccn1)C(=O)CCCCCN1C(=O)NC(c2ccc(-c3ccccc3)cc2)C(C(=O)OCc2ccccc2)=C1C (stereo not given) | inconclusive: 31.6 µM [cytotoxic, single point] | –
23 | COc1ccc(-c2cnnn2-c2ccc(NC(=O)c3ccco3)cc2)cc1OC | – | inactive: 1.74%
24 | Cc1cc(-c2ccc(N3C(=O)CCC3=O)c(C)c2)ccc1N1C(=O)CCC1=O | inconclusive: 20 µM [cytotoxic, single point] | –
25 | CCCCn1c(SCC(=O)Nc2nnc(C(C)C)s2)nc2c1c(=O)n(C)c(=O)n2C | inconclusive: 12.6 µM [cytotoxic, partial curve] | –
26 | COc1cc(-c2nc(-c3cccc(C)c3)no2)cc(OC)c1OC | – | inactive: 3.27%
27 | Cc1ccc(NC(=O)C(=O)NCC(c2cccnc2)N2CCOCC2)cc1C (stereo not given) | inconclusive: 31.6 µM [cytotoxic, single point] | –
28 | CCOC(=O)Cc1ccc(NC(=O)n2ncc3c(C)cccc32)cc1 | inconclusive: 7.94 µM [cytotoxic, partial curve] | –
29 | Clc1ccccc1OCc1nc(-c2ccccn2)no1 | inconclusive: 12.6 µM [cytotoxic, partial curve] | –
30 | CCCS(=O)(=O)c1ncc(Cl)c(C(=O)N(Cc2ccccc2)Cc2ccco2)n1 | inconclusive: 15.8 µM [cytotoxic, single point] | –
31 | CCS(=O)(=O)n1nc(-c2ccc(OC)cc2)nc1SC | inconclusive: 12.6 µM [cytotoxic, partial curve] | –
32 | COc1cccc(/C=N/n2c(-c3ccco3)nc3ccccc3c2=O)c1 | inconclusive: 12.6 µM [cytotoxic, partial curve] | –
33 | CCOc1ccc(NC(=O)N(CCN2CCOCC2)Cc2ccc3c(c2)CCCN3CC)cc1 | inconclusive: 3.98 µM [cytotoxic, partial curve, poor fit] | –
34 | CC(=O)Nc1ccc(S(=O)(=O)Nc2cccc(-c3ccc(N4CCC(C)CC4)nn3)c2)cc1 | active: 2.51 µM | –
35 | COc1cccc(-c2nc(SCC(=O)Nc3ccc4c(c3)OCO4)c(-c3ccccc3)[nH]2)c1 | inconclusive: 35.5 µM [cytotoxic, single point] | –
